Test results as given in PMC12040169 (PLOS Biology, 2025).
This is one part of the list.

test system: T1, C. trachomatis L2/434/Bu expressing GFP (CTL2-GFP); parameters: species or system HeLa; C. trachomatis total inclusion area by high-content imaging, normalised to DMSO; conditions: total inclusion area; 28.5 h, 10 µM; inhibitor
T1 construct: L2/434/Bu GFP intracellular growth in HeLa cells
Outline: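 After bulk GFP and resorufin fluorescence reads, cells were fixed, stained with Hoechst and imaged by high-content microscopy. Inclusion area and number (GFP) stood in for chlamydial growth, nuclei count (Hoechst) for host cell viability. MICs were derived as for the bulk readout.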

Point of comparison: `COc1ccc([C@H]2CN(C(=O)c3ccccn3)[C@@H]3CCCN(C(C)=O)[C@H]23)cc1` [CBK285523], “% of control remaining” value 95.2071. Against it:
- O=C(Cn1cc(-c2ccc(CN3CCCCC3)cc2)nn1)NCc1ccc(Cl)cc1Cl [CBK167689] — higher, 99.88
- CS(=O)(=O)N1CC2(CCN(CC(=O)c3ccsc3)CC2)c2ccccc21 [CBK144595T] — higher, 104.634
- CC(C)[C@H](CO)Nc1cncc(-c2ccc(F)cc2F)n1 [CBK065883] — higher, 97.6467
- Cn1c(-c2ccccc2)cnc1NC(=O)C1CN(S(=O)(=O)c2ccc(F)cc2)C1 [CBK285945] — higher, 98.7133
- O=C(CN1C2CCC1CC(O)(c1ccco1)C2)NCc1ccccc1 (stereo not drawn) [CBK284105] — lower, 73.2017
- CC(CCc1ccccc1)N(C)CCN(C)C (stereo not drawn) [CBK261933] — lower, 58.1643
- Cc1cccc(C)c1N(CC(=O)O)S(C)(=O)=O [CBK262329] — higher, 118.924
- CNC(=O)C1(Cc2cccc(-c3cccs3)c2)CCN(C(=O)COc2ccccc2)CC1 [CBK285732] — lower, 79.7858
- CC(CNCC1CCCO1)COc1cccc(Cl)c1 (stereo not drawn) [CBK058789] — lower, 40.073
- O=C(c1ccno1)N1Cc2ccccc2C1 [CBK200327] — lower, 66.9863
- O=C(Nc1nccs1)C1CCCN(C(=O)c2ccco2)C1 (stereo not drawn) [CBK296725] — higher, 123.223
- CCCS(=O)(=O)Nc1cccc2[nH]ccc12 [CBK159488] — higher, 99.5358
- COCCNc1nccnc1-c1ccccc1 [CBK088555] — lower, 83.7135
- O=S(=O)(Nc1ccc(-c2nnn[nH]2)cc1)c1c(F)cccc1F [CBK154734] — higher, 103.715
- CCNC(=O)CN(C)S(=O)(=O)c1cc(Cl)ccc1Cl [CBK091853] — lower, 91.3122
- COc1cccc(-c2cc(C(=O)Nc3nnn[nH]3)c3ccccc3n2)c1 [CBK262640] — higher, 106.037
- O=c1c2[nH]cc(-c3ccccc3)c2ncn1CCc1ccccc1 [CBK288025] — lower, 55.0564
- O=C(COc1cccnc1)N1CCN(c2ncccn2)CC1 [CBK144521] — lower, 45.5208
- O=C(O)C(c1c[nH]c2cc(F)ccc12)N1CCN(CC(=O)N2CCOCC2)CC1 (stereo not drawn) [CBK286825] — higher, 99.5266
- CCOC(=O)c1cnc2ccc(F)cc2c1N1CCN(C)CC1 [CBK304376] — lower, 4.76
- CCNc1cc2ccccc2c(-c2cccc(C(F)(F)F)c2)n1 [CBK085772] — lower, 71.3303
- COc1ccc(CCCC(=O)Nc2c(C)nn(C)c2N2CCNCC2)cc1OC [CBK050252T] — lower, 86.2255
- COc1cccc(C2(NC(=O)CCn3cccn3)CCCC2)c1 [CBK283660] — lower, 93.8209
- O=C(c1csnn1)N1CCN(CCc2ccccc2)CC1 [CBK200228] — lower, 90.8077
- Cn1c(N2CC[C@H](O)C2)nc2cc(C(=O)NCCn3cccc3)ccc21 [CBK307480] — lower, 55.7449
- COc1ccc(Br)c(C(=O)N(C)Cc2cnn(C)c2)c1 [CBK305142] — lower, 39.8775
- CCCN1CCC(=NNC(=O)c2c[nH]c3ccccc23)CC1 [CBK262597] — higher, 96.986
- Cc1cc(OCC(O)CN(Cc2ccccc2)C(C)(C)C)ccc1[N+](=O)[O-] (stereo not drawn) [CBK086757] — higher, 105.774
- c1ccc2oc(CN3Cc4nc[nH]c4C[C@H]3c3nc(-c4cnccn4)no3)cc2c1 [CBK288954] — higher, 103.445
- COC(=O)c1c(NC(=O)C(=O)NCc2cccnc2)sc2c1CCCC2 [CBK269170] — higher, 103.386
- O=C1COCC(=O)N1c1ccc(I)cc1 [CBK086499] — lower, 52.4287
- CN1CCN(c2nc(-c3ccoc3)cn3ccnc23)CC1 [CBK066645] — lower, 91.3388
- Cc1ccccc1SCC(C)C(=O)O (stereo not drawn) [CBK012292] — lower, 59.2178
- COc1ccccc1-c1ccc(NC(=O)C2(c3cccc(F)c3)CCOCC2)cc1 [CBK285747] — lower, 94.6821
- CC(C)c1nccn1CC(=O)N(C)C(C)c1ccc(F)c(F)c1 (stereo not drawn) [CBK306443] — lower, 41.5537
- O=C(CSCCO)Nc1ccc(Oc2ccccc2)cc1 [CBK269167] — lower, 69.9285
- [N-]=[N+]=Nc1nc2c(N)ncnc2n1C1CC(O)C(CO)O1 (stereo not drawn) [CBK201178] — higher, 132.121
- Cc1ccc2oc(-c3ccc(C)c(NC(=O)c4cc([N+](=O)[O-])ccc4Cl)c3)nc2c1 [CBK263055] — lower, 89.9214
- COc1ccc(CN2C(=S)N(c3ccc(OC)cc3)[C@H]3[C@@H]2[C@H]2OC(=O)[C@@H]3C[C@H]2O)cc1 [CBK288934] — higher, 128.437
- Cc1cc(C(F)F)n2nc(C(=O)NCc3ccccc3F)nc2n1 [CBK266228] — higher, 116.814
- O=C(/C=C/c1ccco1)NC(=S)Nc1ccc(O)c(-c2nc3ccccc3s2)c1 [CBK264344] — lower, 83.8463
- C=CCNC(=O)N[C@H]1CO[C@H]2[C@@H]1OC[C@H]2OC(=O)Nc1ccccc1 [CBK289466] — higher, 120.714
- O=C(N/N=C/c1ccncc1)C1CC1C(=O)N/N=C/c1ccncc1 (stereo not drawn) [CBK261115] — lower, 70.0739
- Cc1ccc(Cn2nc(NC(=O)c3cccn3C)c3ccccc32)cc1 [CBK048214] — higher, 100.521
- CSCCN1CCC(Oc2nccnc2OCC2COc3ccccc3O2)CC1 (stereo not drawn) [CBK082996T] — lower, 90.8183
- O=C(CCCn1ccnc1)N1CCCC(c2cc3cccnc3[nH]2)C1 (stereo not drawn) [CBK284959] — lower, 92.1928
- Cn1c(=O)[nH]c(=O)c2c(-c3ccccc3)ccnc21 [CBK288136] — lower, 51.9055
- CN(C)c1cccc(Nc2ncc(-c3ccc(N4CCOCC4)cc3)n3ccnc23)c1 [CBK091222] — lower, 70.3759
- CN(C)CCNCc1cccc(OCc2ccccc2)c1 [CBK278216C] — lower, 73.1426
- COc1ccc(C2CNC(=O)N2C(=O)OC(C)(C)C)cc1OC1CCCC1 (stereo not drawn) [CBK007281] — higher, 112.563
- COc1ccc(-c2nnc(NC(=O)C3CCCCC3)o2)cc1 [CBK287592] — lower, 87.6181
- CCn1cc(CN(C)Cc2csc(C)n2)c2cc(C(=O)O)ncc21 [CBK306950] — lower, 64.1828
- CCC(=O)NCCc1c[nH]c2ccc([N+](=O)[O-])cc12 [CBK088059] — lower, 93.1867
- O=S(=O)(Nc1ccc2[nH]ccc2c1)c1cccnc1 [CBK156811] — higher, 113.61
- CC(=O)Oc1ccc(-c2cccc(C(=O)NCCO)c2)cc1 [CBK263829] — lower, 83.7087
- CN(C)c1ccc(Nc2cc(-c3cccc4ccccc34)ncn2)cc1 [CBK037835] — lower, 30.1476
- Cc1nc(-c2ccc(NC(=O)C3CC=CCC3C(=O)O)cc2)cs1 (stereo not drawn) [CBK299815] — higher, 121.272
- O=S(=O)(NCC1(c2ccccc2)CCCC1)c1cccnc1 [CBK282762] — lower, 89.4294
- N#Cc1c(NC(=O)Cn2cnc3sc(-c4ccccc4)cc3c2=O)sc2c1CCC2 [CBK268053] — higher, 98.1565
- CC1CCCCN1C(=O)CCn1c(C(F)F)cc2cccnc21 (stereo not drawn) [CBK285024] — higher, 101.706
- COc1cccc(OC)c1OCCNC1CCc2cc(Cl)ccc2C1 (stereo not drawn) [CBK013079C] — lower, 87.5574
- CC1CCN(c2nnnc3c2sc2nc(N4CCOCC4)c4c(c23)CC(C)(C)SC4)CC1 [CBK268062] — higher, 102.599
- CCNC(=O)N1CC(C)N(CCCC(c2ccc(F)cc2)c2ccc(F)cc2)CC1C (stereo not drawn) [CBK024912C] — lower, 41.2418
- COc1cc(F)ccc1-c1nc2ncccc2cc1NS(C)(=O)=O [CBK085692] — lower, 85.6229
- CCCCOc1ccc(-c2cn(CC(N)=O)cn2)cc1 [CBK009035] — lower, 88.4894
- O=C(Cc1nnn[nH]1)N1CCCC2(CCN(C(=O)c3ccoc3)C2)C1 (stereo not drawn) [CBK137077] — higher, 119.388
- CCCC(C)N(C)C(=O)CCc1c(C)nc(-c2cccnc2)[nH]c1=O (stereo not drawn) [CBK304965] — lower, 69.4737
- C/C(=N\Nc1nc(-c2ccccc2)cs1)c1ccccc1 [CBK262104] — lower, 85.9634
- O=C1c2cccc3cccc(c23)C(=O)N1CCCSc1nnc(-c2ccncc2)n1-c1ccccc1 [CBK268684] — lower, 88.1055
- O=C(NCC(O)c1ccc(O)cc1)c1cnc(-c2ccc(Cl)cc2)c(-c2cccnc2)c1 (stereo not drawn) [CBK036656] — higher, 135.405
- Cc1nc(SCc2ccccc2)nc(O)c1CC(=O)O [CBK264203] — higher, 134.726
- CCc1csc(C(=Cc2cccs2)C(N)=O)n1 [CBK001007] — higher, 101.928
- Cc1cc(C)n(CC(O)CN(c2ccccc2)S(=O)(=O)c2ccccc2)n1 (stereo not drawn) [CBK264469] — higher, 117.744
- O=C(CNS(=O)(=O)c1cc(F)c(Br)cc1F)N1CCOCC1 [CBK042216] — lower, 85.8382
- Cn1cc(CCNC(=O)NC2CCN(Cc3ccccn3)CC2)cn1 [CBK305297] — lower, 44.918
- CC(=O)c1ccc(-c2cnc3[nH]c(=O)n([C@@H](C)c4ccccc4)c3n2)s1 [CBK064360] — higher, 132.932
- CC1=C[C@@H](CC#N)[C@H](C(C)C)C[C@H]1CC(=O)Nc1ccccn1 [CBK289215] — lower, 79.5533
- O=C(CN1C(=O)c2ccccc2C1=O)Nc1nc(-c2ccccc2)cs1 [CBK287343] — higher, 100.311
- Cc1ccc(S(=O)(=O)Nc2ccnc(-c3ccc(CO)cc3)n2)cc1 [CBK067477] — higher, 102.725
- COc1ccc2[nH]c3c(c2c1)CCNC31CCN(Cc2ccccc2)C1 (stereo not drawn) [CBK073952C] — lower, 47.8748
